Results: the RNAGym collection of RNA variant scans (doi:10.1093/nar/gkz1192)
The source gives no read counts; variants with many changes may rest on few reads.

B1: CPEB3 Ribozyme (parent)
chain: UAACAGGGGGCCACAGCAGAAGCGUUCACGUCGCAGCCCCUGUCAGAUUCUGGUGAAUCUGCGAAUUCUGCUGUAUAUCUC

Variants of: B1
Assay: self-cleavage, relative activity (ratio to wild type); higher = more cleavage; in vitro, sequencing
Outline: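 After error-prone PCR and barcoding, CPEB3 ribozyme mutant libraries were transcribed with T7 RNA polymerase at 37°C for 5 hours, then given 15 min with DNase I before an EDTA stop, and they cleaved during both steps. Reverse transcription with template switching preceded Illumina sequencing. Relative activity divides a variant's cleaved/total read fraction by the unmutated ribozyme's. At least 5 reads were required per variant, and three batches were averaged.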
UAACAGGGGGCCACAACAGAAGCGUUCACGUCGCAGCCCCUGUCAGAUUCUGGUGUAUCUGCGAAUUCUGCUGUAUAUCGC [G16A A56U U80G] gave a self-cleavage of 0.1.
Work on UAACAGGGGGCCACACCAGAAGCGUUCGCGUCGCAGCCCCUGUCAGAUUCUGGUGAAUCCUCGAAUUCUGCAGUAUAUCUC [G16C A28G U60C G61U U72A] yielded a self-cleavage of 0.1.
UAACAGGGGGCCACACCAGAAGCGUUCACGUCGCAGCCUCUGUCAGAUUCUGGUGGAUCUGCGAAUUCUGCUGUAUAUCCC [G16C C39U A56G U80C] gave a self-cleavage of 0.06.
With UAACAGGGGGCCACAACAGAAGCGUUCACGUCGCAGCCCCCGUCAGAUUCCGGUGAGUCUGCGUAUUCUGCUGUAUAUCUC [G16A U41C U51C A57G A64U] the self-cleavage was 0.25.
For UAACAGGGGGCCACAACAGAAGCGUUCACGUCGCUGCCCCUGUCAGAUCCUGGUGAAUCUGCGAGUUCUGCUGUAUAUCUC [G16A A35U U49C A65G], the self-cleavage was 0.06.
In the case of UAACAGGGGGCCACAACAGAAGCGUUCACGUCGCAGCCCCUGUCAGAUCCUGGUUAAUCUGCGAAUUCGGCUGUAUAUCUC [G16A U49C G55U U69G], the self-cleavage is reported as 0.05.
With UAACAGGGGGCCACAACAGAAGCGUUCACGUCGCAGCCCCUGUCAGAUUCUGGAGAAUCUGCGAACUCUGCUGUAUAUCCC [G16A U54A U66C U80C] the self-cleavage was 0.05.
For UAACAGGGGGCCACAACAGAAGCGCUCACGUCGCAGCCCCUGUCUGAUUCUGGUGAAUCUGCGAAUUCUGCUGUAUAUCUC [G16A U25C A45U], the self-cleavage was 0.12.
Work on UAACAGGGGGCCACAACAGAAGCGUCCACGUCGCAGCCCCUGUCAGAUUCUGGUGAAUCCGCGAAUUCUGCGGAAUAUCUC [G16A U26C U60C U72G U74A] yielded a self-cleavage of 0.12.
For UAACAGGGGGCCACAACAGAAGCGUUCACGUCGUAGACCCUGUCAGAUUCUGGUGAAUCUGCGAAUUCUGCUGCAUAUCCC [G16A C34U C37A U74C U80C], the self-cleavage was 0.28.
UAACAGGGGGCCACAACAGAAGCGCUCACGUCGCAGCCCCUGUCUGAUUCUGGUGAAUCUGCGAAUUCUGCUGUAUAUCAC [G16A U25C A45U U80A] gave a self-cleavage of 0.07.
Variant UAACAGGGGGCCACACCAGAAGCGUUCACGUCGCAGCCCCUGUCAGAUUCUGGUGUAUCUACGAAUUCUGCUGUAUAUCUC [G16C A56U G61A] has a self-cleavage of 0.1.
UAACAGGGGGCCACAACAGAAGCGUUCGCGUCGCAGCCCCAGUCGGAUCCUGGUGAAUCUGCGAAUUCAGCUGUAUACCUC [G16A A28G U41A A45G U49C U69A U78C] gave a self-cleavage of 0.04.
Work on UAACAGGGGGCCACACCAGAAGCUUUCACGUCGCAGCCCCUGUCAGAUUCUCGUGAAUCUGCGAAUUCUGCUGUAUAUCUC [G16C G24U G52C] yielded a self-cleavage of 0.15.
For UAACAGGGGGCCACAACAGAAGCGUUCACGUCGCAGUCCCUGUCAGAUUCUGGAGAAUCUGCGAAUUCUGCUGUAUAUCAC [G16A C37U U54A U80A], the self-cleavage was 0.68.
UAACAGGGGGCCACAACAGAAGCGUUCGCGUCGCAGCCCCUGUCAGAUUCUGGUGAAACUGCGAAUUCUGCUGUAUAUCUC [G16A A28G U58A] gave a self-cleavage of 0.15.
In the case of UAACAGGGGGCCACAACAGAGGCGUUCACGUCGCAGCCCCUGUCAGAUUCUGGUGAAUCUGCGAAUUCUGCCGUAUAUCUC [G16A A21G U72C], the self-cleavage is reported as 0.21.
UAACAGGGGGCCACACCAGAAGGGUUCACGUCGCAGCCCCUGUCAGAUUCUGGUGAAUCUGCGGAUUCUGCUGUAAAUCUC [G16C C23G A64G U76A] showed a self-cleavage of 0.17.
UAACAGGGGGCCACAACAGAAGCAUUCACGUCGCAGCCACUGUCAGAUCCUGGUGAACCUGCGAAUUCUGCCGUAUAUCUC [G16A G24A C39A U49C U58C U72C] showed a self-cleavage of 0.05.
UAACAGGGGGCCACACCAGAAGUGUUCGCGUCGCAGCCCCUGUCAGAUUCUGGUGAAUCUGCGAAUUCUGCUGUAUAUCUC [G16C C23U A28G] showed a self-cleavage of 0.23.
UAACAGGGGGCCACAACAGAAGCGUUCACGUCGCAGCCCCUGUCAGAUUCUGGUGAAUCUGCGAAUUCUGCUGUCUAUCAC [G16A A75C U80A] gave a self-cleavage of 1.1.
With UAACAGGGGGCCACACCAGAGGCGUUCACGUCGCAGCCCCUGUCAGAUUCUGGUGAAUCAGCGAAUUCUGCUGUAUAUCUC [G16C A21G U60A] the self-cleavage was 0.05.
With UAACAGGGGGCCACAACAGAAGCGUUCACGUCGCAGCCCCUGUCAGAUUCUGGUGAAUCUGCGAAUACUGCAGUAUAUCUC [G16A U67A U72A] the self-cleavage was 0.1.
For UAACAGGGGGCCACAACAGAAGCGUCCACGUCGCAGCCCCUGUCGGAUUCUGGUGAGUCUGCGAAUCCUGCCGUUUAUCUC [G16A U26C A45G A57G U67C U72C A75U], the self-cleavage was 0.14.
UAACAGGGGGCCACACCAGAGGCGUUCACGUCGCAGCCCCUGUCAGAUUCUGGUGUAUCUGCGAAUUCUGCCGUAUAUCCC [G16C A21G A56U U72C U80C] gave a self-cleavage of 0.08.
Variant UAACAGGGGGCCACAACAGAAGCGUUCACGUCGCAGCUCCUGUCAGAUUCUGGUGAAUCUGAGAAUUCUGCUAUAUAUCUC [G16A C38U C62A G73A] has a self-cleavage of 0.09.
UAACAGGGGGCCACAACAGAAGCGUUCACGUCGCUGCCCCUGUCAGAUUCUGGUGUACCUGCGAAUUCUGCUGUAUACCUC [G16A A35U A56U U58C U78C] gave a self-cleavage of 0.05.
In the case of UAACAGGGGGCCACACCAGAAGCGUUCACGUCGCAGCCCCUGUCAGAUUCUGGUGAAUCUGAGAAUUCCGCUGUUUUACUC [G16C C62A U69C A75U A77U U78A], the self-cleavage is reported as 0.11.
UAACAGGGGGCCACACCAGAUGCGUUCGUGGCGCAGCCCCUGCCAGAUUCUGGUGAAUCUGCGAAUUCUGCUGUAUAUCUC [G16C A21U A28G C29U U31G U43C] showed a self-cleavage of 0.07.
In the case of UAACAGGGGGCCACAACAGGAGCGUUCACGUCGCAUCCCCUGUCAGACUCUGGUGAAUCUGCGAAGUCUGCUGUAUAUCUC [G16A A20G G36U U48C U66G], the self-cleavage is reported as 0.12.
Variant UAACAGGGGGCCACAACAGAAGCGCUCACGUCGCAGCCCCUGUCAGAUUCUGGUGAAUCUGCGAAUUCUGCUGUAUAUCCC [G16A U25C U80C] has a self-cleavage of 0.21.
UAACAGGGGGCCACAACAGAAGCGUUCACGUCACAGCCCCUGUCAGAUUCCGGAGAAUCUGCGAAUUCUGCUGUAUGUCUC [G16A G33A U51C U54A A77G] gave a self-cleavage of 0.14.
For UAACAGGGGGCCACAACAGAAGUGUUCAGGUCGCAGCCCCCGUCAGAUUCUGGUGAAUCUGCGAAUUCUGCCGUAUAUCUC [G16A C23U C29G U41C U72C], the self-cleavage was 0.09.
UAACAGGGGGCCACACCAGAAGCGUUCACGUCGCAGCCUCUGUCAGGUUCUGGUGCAUCUGCGAAUUCUGCUGUAUAUCUC [G16C C39U A47G A56C] showed a self-cleavage of 0.07.
